Test results reported in the RNAGym collection of RNA variant scans (doi:10.7554/elife.90254).
Read counts are not given, so values of variants with three or more changes are uncertain.

B1: LINE1-mini (parent)
chain: GGCAGAGCUCAACACAGCGUGGCAAAGUGGCUGUGGCUAGACUGCC

Variants of: B1
Experiment: self-cleavage, relative activity (ratio to wild type); higher = more cleavage; in vitro, sequencing; the parent is a self-cleaving ribozyme

| Variant | self-cleavage |
| --- | --- |
| C8G C10U C18U | 0.02 |
| C8G G30U C31G | 0.01 |
| C8G G27U U28A | 0.08 |
| C8U A12G C42G C45A | 0.05 |
| C8G C10U A26C | 0.03 |
| C8G U32G G44U | 0.07 |
| C8U A11U C13U C15A A26G | 0.05 |
| C8A G22C A25U | 0.4 |
| C8U C13U G19U U20A | 0.84 |
| C8G C13A A25G | 0.09 |
| C8U A16C G21C A41U | 0.09 |
| C8A G27U G44C | 0.09 |
| C8G A14C G27U G36C | 0.03 |
| C8A U9G G29C G30U | 0.05 |
| C8A G22A G30A G36A | 1.35 |
| C8U A11U A14C C15U U32G | 0 |
| C8G C10G U34A C42U | 0.01 |
| C8G G17A G19U C45G | 0.05 |
| C8U A11G C42A | 0.01 |
| C8A U9G C23U U28C | 0.04 |
| C8U A14U U34A | 0.15 |
| C8G A12C C13U G22A C37U U38C | 0.01 |
| C8U A12U G29A G35C U43A | 0.27 |
| C8G A14U C37U | 0.02 |

| Variant | self-cleavage |
| --- | --- |
| C8G A12U U34C G40A A41C | 0.02 |
| C8G C10A G44C | 0 |
| C8G U34C G40A G44C | 0.12 |
| C8G G22U C23A A41U | 0.19 |
| C8U C10U A14G G35C A41G | 0.01 |
| C8A G22U G27U U38A C45U | 0.07 |
| C8G A14G A16G A25G G40U | 0 |
| C8G G44A C46A | 0.01 |
| C8G A11C C18U C31A G33A | 0.02 |
| C8G C10U U38G A41G C42U | 0.04 |
| C8A G19A G22A | 0.25 |
| C8A U9A C23G G30U | 0.24 |
| C8U C13U G19A A26G G27U G30C C42A G44A | 0.26 |
| C8U A11U C23G | 0.01 |
| C8A C42G G44U | 0.19 |
| C8G G21A G27U G44A | 0.04 |
| C8A C18G U43A | 0.01 |
| C8A G17A G21A A25U C46A | 0.31 |
| C8U C10A A11C | 0.04 |
| C8U A11G C13U A16G G27A | 0.03 |
| C8G G19A A26G U28A U43A G44U | 0.01 |
| C8G A39C U43C | 0.04 |
| C8G C13U G35U | 0.29 |
| C8A G17A C37A | 0.33 |

| Variant | self-cleavage |
| --- | --- |
| C8G A14U C46U | 0.05 |
| C8U A24G C46A | 0.05 |
| C8U A24G C46G | 0.02 |
| C8A G19U G33U | 0.03 |
| C8G A12C C18U G44U | 0.01 |
| C8G U9G A41C U43C | 0.01 |
| C8A G27U C37A | 0.09 |
| C8G C13U G21U G35U | 0.43 |
| C8A G19A U20A G33C G36C G40U | 0.04 |
| C8U C10A C13A C18U C45A C46U | 0.02 |
| C8G C31A U38G | 0 |
| C8G G21U G22A | 0.1 |
| C8A U20A G21U A25C | 0.04 |
| C8U A16C G27A | 0.1 |
| C8G G33U C42U | 0.02 |
| C8G U9A C45U | 0.05 |
| C8G G27U A41U C46G | 0.06 |
| C8A U9C C13A G29C | 0.08 |
| C8U C10A G30C | 0.02 |
| C8A U28A G30A G44C | 0.3 |
| C8G U9A C10A A25G C46U | 0.01 |
| C8A C37A G44A | 0.12 |
| C8U A11U C15A C23G C42A | 0.04 |
| C8G U9C C23G A25C G33U | 0.02 |

| Variant | self-cleavage |
| --- | --- |
| C8G G19U C42G | 0.02 |
| C8G G21C C46U | 0.07 |
| C8A C23U G30U | 0.21 |
| C8G C13G A14G G40A A41C G44C | 0.01 |
| C8G U9G C18A U43C | 0.04 |
| C8U C13G G17C G44A | 0.07 |
| C8G U9G A12C | 0.03 |
| C8A G19U G22C C31U C37U | 0.04 |
| C8A G21U C23A U34G | 0.05 |
| C8G C18A C46A | 0.04 |
| C8G A12G G17A G19U U20C G22U G40U U43C | 0.01 |
| C8A G19U U20C G21A | 0.14 |
| C8A G33U U34C U43G | 0.04 |
| C8G G27U U43G C46U | 0.01 |
| C8G G36U U38C | 0.01 |
| C8G C23A C42G | 0.03 |
| C8G C13U A16C U38G | 0.04 |
| C8A G35U A39U | 0.07 |
| C8U C13U A14G U28G C31U | 0.13 |
| C8G A11G A26G G27U | 0.04 |
| C8G A11G C18G C42A | 0.02 |
| C8G C37A U38G | 0.02 |
| C8A U9C A12G G36U | 0.03 |
| C8G A11G U34A | 0.03 |

| Variant | self-cleavage |
| --- | --- |
| C8G A12U C15A G40A U43C | 0.02 |
| C8G C15U A16U G21U | 0 |
| C8A G17C U38G A39U A41U | 0.01 |
| C8A G17A G33A C37U | 0.1 |
| C8G C31U G33U | 0.06 |
| C8U A12C C15A G17A C18A G30C | 0.01 |
| C8G C37G C45G | 0.03 |
| C8A U28C G35A G36A C45U | 0.01 |
| C8U C10A C18U U20A C31U A39U C46U | 0.04 |
| C8U A11C G22U A26U U38A | 0.01 |
| C8G A24G C42G | 0.03 |
| C8G A12U C18U U43A | 0 |
| C8G G21C C23G | 0.03 |
| C8U C10U A16C | 0.03 |
| C8G C31A C37U | 0.1 |
| C8G A11G G30A U34C G35A U38A | 0 |
| C8A G29A C31A | 0.12 |
| C8A C23A G35A | 0.07 |
| C8G C15A G19U | 0.01 |
| C8U C13A A16G G30U U34A | 0.04 |
| C8A U34C C45A C46U | 0.09 |
| C8G U9G G27U U38G C42A | 0.04 |
| C8U A11G G40A | 0.02 |
| C8G C15G G27C C37U | 0.03 |

| Variant | self-cleavage |
| --- | --- |
| C8U A41G G44A | 0.04 |
| C8G U38A A39U | 0.03 |
| C8A C23A A25C G30A | 0.17 |
| C8G C10A A11C C37U U43A | 0 |
| C8G U28G G29U | 0.07 |
| C8A G35U C42A | 0.31 |
| C8U C10A C13A A14C G17A U20G | 0.01 |
| C8A U34C A39C | 0.24 |
| C8G G29U A39C G40U | 0.05 |
| C8U A16G C42U U43G G44U | 0.09 |
| C8U A14C A24U | 0.42 |
| C8U A12G G40U | 0.32 |
| C8G A12G A24U | 0.03 |
| C8A U9C G17A C18G G22U | 0.04 |
| C8A G17A A25G G27A | 0.13 |
| C8G C18A G29U | 0.11 |
| C8G A11U G22U G33A G35A | 0.03 |
| C8A C23U G27U | 0.12 |
| C8G C23A A25G | 0.06 |
| C8G A24C U28C G35U | 0.05 |
| C8U A14C C18G G33C U38A A39C | 0.09 |
| C8A C23G A24G | 0.22 |
| C8A U38C G40U C46G | 0.06 |
| C8G A14C G17A G19C C23G | 0.03 |

| Variant | self-cleavage |
| --- | --- |
| C8A G22U C23G G35A | 0.51 |
| C8G A11U G33C G36A U43C | 0.02 |
| C8A G19A U28G | 0.3 |
| C8U C10A A16C G19U | 0.02 |
| C8U A24U G30C | 0.09 |
| C8A G36U A39G | 0.06 |
| C8G G27A G40C C46A | 0.01 |
| C8G G19A A39U | 0.18 |
| C8G G17C U32C G33C G40A | 0.01 |
| C8A C23A C31U | 0.35 |
| C8G A25U U32G | 0.04 |
| C8A G19U A26U G30C U32A | 0.17 |
| C8A G30U G36C | 0.09 |
| C8G U28C G40A | 0.09 |
| C8G U43A C45G | 0.07 |
| C8A G19C G22A | 0.07 |
| C8A U9A G27C | 0.07 |
| C8G U9C C23U C31U | 0 |
| C8U A24U U38G C42U | 0.11 |
| C8U A41U C45A | 0.35 |
| C8U C13G U20C C23A | 0.07 |
| C8U A14C C45U | 0.08 |
| C8A G21U C37G A39G G44A | 0.05 |
